According to PubChem BioAssay AID720709 (National Center for Advancing Translational Sciences (NCATS), 2013):
Out of some 360,000 compounds screened, about 520 (0.14%) were called active. The inconclusive results got no clear call from the source; some entries with a clear call stand among them for comparison. The call rests on the fitted dose curve; in most records, active means well fitted inhibition curve with a large enough effect; inconclusive means small, poorly fitted or top-dose-only effect; inactive means no such curve, though single readings can be large or run the other way. A potency beside an inconclusive call is a rough fit, not a confirmed value.

Molecular target: Rap guanine nucleotide exchange factor 3 (Homo sapiens) (UniProt O95398)
Sequence of UniProt O95398 (O95398 whole entry, looked up): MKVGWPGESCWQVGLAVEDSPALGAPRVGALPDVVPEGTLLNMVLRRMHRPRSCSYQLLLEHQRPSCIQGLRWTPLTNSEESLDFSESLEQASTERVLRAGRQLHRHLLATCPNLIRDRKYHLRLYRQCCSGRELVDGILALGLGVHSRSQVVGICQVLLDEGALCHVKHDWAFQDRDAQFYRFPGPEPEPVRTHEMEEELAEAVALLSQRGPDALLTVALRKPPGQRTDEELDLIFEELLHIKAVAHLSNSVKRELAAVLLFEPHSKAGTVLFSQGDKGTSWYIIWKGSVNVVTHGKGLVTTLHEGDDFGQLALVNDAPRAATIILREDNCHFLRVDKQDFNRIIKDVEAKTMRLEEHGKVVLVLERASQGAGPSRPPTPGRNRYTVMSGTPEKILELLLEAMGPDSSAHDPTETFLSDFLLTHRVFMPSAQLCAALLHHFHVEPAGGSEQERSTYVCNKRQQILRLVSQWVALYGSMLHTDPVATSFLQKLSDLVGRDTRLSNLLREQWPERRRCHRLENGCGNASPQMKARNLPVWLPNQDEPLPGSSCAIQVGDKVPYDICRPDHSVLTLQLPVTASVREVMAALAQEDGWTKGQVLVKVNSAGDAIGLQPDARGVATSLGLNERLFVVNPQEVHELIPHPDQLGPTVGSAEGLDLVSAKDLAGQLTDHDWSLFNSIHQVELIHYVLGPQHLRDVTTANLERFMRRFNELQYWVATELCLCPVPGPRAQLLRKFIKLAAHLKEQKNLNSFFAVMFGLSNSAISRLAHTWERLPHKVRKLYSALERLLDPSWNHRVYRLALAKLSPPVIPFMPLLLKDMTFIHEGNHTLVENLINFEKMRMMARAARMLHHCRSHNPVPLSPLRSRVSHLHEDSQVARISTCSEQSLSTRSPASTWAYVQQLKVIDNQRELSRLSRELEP
Assay: qHTS for Antagonist of cAMP-regulated guanine nucleotide exchange factor 3 (EPAC1): primary screen; further: nearly all actives have a fitted effect of over 50% in size;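 on activity change, negative = inhibition: plate controls were vehicle for no effect and positive control for full effect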
Conditions: EPAC1 GEF assay, Rap1b-BODIPY-GDP exchange fluorescence; activity change, negative = inhibition: at 115 µM (top of the series)
Potency means the concentration at half of the fitted maximal effect; tags describe the fitted curve by direction and shape.

Potency, inconclusive:
COc1ccc(-n2c(=S)[nH]c3cc(C(=O)NCc4cccnc4)ccc3c2=O)cc1 100 µM [inhibitor, single point]
Cc1ccc(N2CCN(C(=O)c3ccccc3Br)CC2)c(C)c1 100 µM [inhibitor, single point]
COc1ccc(N(C)C(=O)CCS(=O)(=O)c2cccc3nonc23)c(OC)c1 22.4 µM [inhibitor, full curve]
CCCCC(CC)C(=O)Nc1ncc([N+](=O)[O-])s1 (stereo not given) 89.1 µM [inhibitor, single point]
CCC1CCc2c(sc(NC(=O)c3ccoc3C)c2C(N)=O)C1 (stereo not given) 100 µM [inhibitor, single point]
Cc1ccccc1CN(c1ccc(C(=O)Nc2ccccc2C(=O)NCc2ccco2)cc1)S(C)(=O)=O 100 µM [inhibitor, partial curve]
CC(=O)N1c2ccc(S(=O)(=O)N3CCC(C(=O)Nc4cccc(C(F)(F)F)c4)CC3)cc2CC1C (stereo not given) 3.16 µM [inhibitor, full curve, poor fit]
Clc1cc(Cl)c(OCCCCn2cncn2)c(Cl)c1 79.4 µM [inhibitor, single point]
Cn1nc(C(=O)N2CCN(c3ccc(Cl)cc3)CC2)c2c1-c1ccccc1S(=O)(=O)C2 39.8 µM [inhibitor, single point]
COc1ccc(-n2nc(C#N)c(Cl)cc2=O)cc1 17.8 µM [inhibitor, full curve]
CC1(C(=O)NS(=O)(=O)c2ccc(F)cc2F)CCN1C(=O)C1(c2ccc(Cl)cc2)CCC1 (stereo not given) 50.1 µM [inhibitor, partial curve]
COc1cc2c(cc1OC)CN(C(=O)c1ccc(S(=O)(=O)N(C)c3ccccc3)cc1)CC2 63.1 µM [inhibitor, partial curve, poor fit]
COc1cccc(/C=C2/C(=O)NN(c3ccc(F)cc3)C2=O)c1 70.8 µM [inhibitor, partial curve]
Nc1cc(-c2ccc(Cl)cc2)nn1-c1ccccc1 89.1 µM [inhibitor, single point]
COc1ccc(C(=O)COC(=O)c2ccccc2NS(=O)(=O)c2ccc(O)c([N+](=O)[O-])c2)cc1 56.2 µM [inhibitor, partial curve, poor fit]
CC1=C(C(=O)N(C(C)C)C(C)C)CC(CC(=O)NCCCCc2ccccc2)C(=O)N1Cc1ccc(C(C)(C)C)cc1 (stereo not given) 39.8 µM [inhibitor, full curve, poor fit]
C/C(=N\N=C1\NC(=O)C(CC(=O)Nc2ccc(C)c(Cl)c2)S1)C(C)(C)C (stereo not given) 89.1 µM [inhibitor, single point]
O=C(O)c1ccc(N2C(=O)CC(SC(=NCc3ccc4c(c3)OCO4)Nc3ccc(F)cc3)C2=O)cc1 (stereo not given) 44.7 µM [inhibitor, partial curve]
Cc1ccc(N2CC(O)Cn3c2nc2c3c(=O)n(C)c(=O)n2C)cc1 (stereo not given) 100 µM [inhibitor, single point]
CC[C@@H](C)C(NC(=O)OC(C)(C)C)c1cn([C@@H](Cc2cc3ccccc3[nH]2)C(=O)N2CCN(C(=O)OC(C)(C)C)CC2)nn1 (stereo not given in full) 8.91 µM [inhibitor, full curve, poor fit]
Cc1ccc(Cn2cccc(NC(=O)CCC3CCCC3)c2=O)cc1 79.4 µM [inhibitor, partial curve]
O=S(=O)(NCc1ccc2c(c1)OCO2)c1cccc2nsnc12 100 µM [inhibitor, single point]
COC1=CC(=NCl)C=CC1=NCl 79.4 µM [inhibitor, single point]
O=C1NC(=O)/C(=C/c2cc3c(cc2Br)OCO3)S1 56.2 µM [inhibitor, partial curve, poor fit]
Cc1ccc(S(=O)(=O)N2[C@@H](c3ccc(Br)cc3)C(C(=O)O)=CC[C@H]2c2ccc(Cl)c(Cl)c2)cc1 22.4 µM [inhibitor, full curve]
CCCN1CCN(S(=O)(=O)c2ccc3c(c2)NC(=O)C(C)C(=O)N3)CC1 (stereo not given) 20 µM [inhibitor, single point]
NC(=S)NNC(=S)Nc1ccccc1 2.82 µM [inhibitor, full curve, poor fit]
CC[N+](CC)(CC)CC(=O)Nc1c(C)cccc1C 20 µM [inhibitor, single point]
CCC(Sc1nc2ccccc2c(=O)[nH]1)C(=O)Nc1ccc(C(C)=O)cc1 (stereo not given) 39.8 µM [inhibitor, single point]
CC(C)(CC(=O)OCC(=O)Nc1ccccc1F)CC1=NS(=O)(=O)c2ccccc2N1 89.1 µM [inhibitor, single point]
Cc1cc(NC(=O)CSc2nc3c([nH]c4ccccc43)c(=O)n2-c2ccccc2F)no1 89.1 µM [inhibitor, partial curve]
COc1ccc(S(=O)(=O)N2CCOC2CNC(=O)C(=O)NCc2ccccn2)cc1C (stereo not given) 50.1 µM [inhibitor, partial curve]
COC(=O)c1ccc(C)c(NC(=O)CSc2nc3[nH]c(=O)cc(O)c3s2)c1 79.4 µM [inhibitor, single point]
COc1ccc(CN([C@H](C)CO)S(=O)(=O)N(Cc2ccccc2)[C@H](CO)C(C)C)cc1 70.8 µM [inhibitor, partial curve, poor fit]
CSCC(C)N1CCC(CO)(CCCc2ccccc2)CC1 (stereo not given) 12.6 µM [inhibitor, full curve, poor fit]
Oc1ccc(/C=N/Nc2ncnc3c2ncn3Cc2ccccc2)cc1O 10 µM [inhibitor, full curve]
CCCCn1nnnc1C(c1ccccc1)N1CCN(CCN2CCOCC2)CC1 (stereo not given) 89.1 µM [inhibitor, partial curve, poor fit]
COc1cccc(CNC(=O)CN2C(=O)CCSc3ccc(S(=O)(=O)N4CCCC4)cc32)c1 100 µM [inhibitor, single point]
O=C(/C=C/[C@H]1O[C@@H](n2ccc(=O)[nH]c2=O)[C@H](O)[C@@H]1O)NCCc1c[nH]c2ccccc12 39.8 µM [inhibitor, single point]
O=C(CC1Sc2ccccc2NC1=O)OCc1cc(=O)oc2cc(O)ccc12 (stereo not given) 89.1 µM [inhibitor, single point]
COc1cc(C(C)=O)ccc1COc1ccc(C(=O)O)cc1OC 100 µM [inhibitor, single point]
CCCCc1nc2cc(C(=O)NCc3ccccn3)ccc2o1 89.1 µM [inhibitor, partial curve]
CC(C)n1c(SC2CCOC2=O)nc2ccccc21 (stereo not given) 100 µM [inhibitor, single point]
COc1cc(/C=C/C(=O)OCC(=O)NC(=O)NC(C)(C)C)ccc1OCC#N 6.31 µM [inhibitor, full curve, poor fit]
N#CCCn1cc(C(=O)CN2C(=O)NC3(CCCCCC3)C2=O)c2ccccc21 25.1 µM [inhibitor, full curve, poor fit]
CCOc1cc(/C=C2\NC(=O)NC2=O)cc([N+](=O)[O-])c1O 100 µM [inhibitor, single point]

Activity change, negative = inhibition, inactive:
COCCNC(=O)/C(C#N)=C/c1c(N2CCN(c3cccc(Cl)c3)CC2)nc2c(C)cccn2c1=O 6.32%
O=C(O)c1ccc(-c2ccccn2)s1 9.93%
O=C1Cc2ccccc2Sc2cc(OCCCN3CCCCC3)ccc21 -14.6%
CN1CCN(c2ccc(NC(=O)c3ccc(-c4ccc(Br)cc4)o3)cc2)CC1 -26.6%
COC(=O)CC(NC(=S)NC(=O)c1ccccc1)c1ccc(Br)cc1 (stereo not given) -14.9%
COc1ccc(C(=O)NCCNc2nc3cc(C)cc(C)c3cc2C#N)nc1 18.3%
O=C(COc1ccc2ccc(=O)oc2c1)NC1CCN(Cc2ccccc2)CC1 -0.196%
CC1CCc2nc(NC(=O)Cc3cccs3)sc2C1 (stereo not given) -15.1%
COc1ccc(/C=N/NC(=O)c2ccc3ccccc3c2)cc1OS(=O)(=O)c1ccc(NC(C)=O)cc1 -1.69%
Cc1cc(C(=O)NCc2cccs2)cs1 -1.96%
COc1ccc(Cc2c(-c3ccc(C)cc3)nc3ccc(Cl)cn23)c(C)c1 0.968%
CC(=O)Nc1ccc(CN2C(=O)C(Cc3ccccc3)ON=C2c2cccc(F)c2)cc1 (stereo not given) -17.6%
COc1cc2cc(CCCOC(=O)c3ccco3)oc(=O)c2cc1OC -4.46%
COc1ccc(OC)c(C2NC(=O)NC(C)=C2C(=O)Nc2ccc(C)cc2)c1 (stereo not given) 5.13%
CSc1ccc(S(=O)(=O)N2CCC(C(=O)Nc3ccc(C(N)=O)cc3)CC2)cc1 -34.8%
CN1CCCN(C2C3CC4CC(C3)CC2C4)CC1 (stereo not given) 12%
CN(C)S(=O)(=O)c1cccc(NC(=O)COC(=O)CNC(=O)c2cccc([N+](=O)[O-])c2)c1 6.57%
Cc1noc(C)c1COc1ccccc1C(=O)NCCc1ccc(S(N)(=O)=O)cc1 4.75%

Activity change, negative = inhibition, inconclusive:
CCc1ccc(NC(=S)NC2CC3CCCC(C2)N3Cc2ccccc2)cc1 (stereo not given) -14.1% [inhibitor]
